Measured values from patent publication US20260207767A1 (ANAVEON, published 2026).

T1: His-tagged recombinant CD25 (UniProt P01589 22-213, limits assumed)
T1 construct: also called IL-2R alpha chain
T1 sequence (looked up): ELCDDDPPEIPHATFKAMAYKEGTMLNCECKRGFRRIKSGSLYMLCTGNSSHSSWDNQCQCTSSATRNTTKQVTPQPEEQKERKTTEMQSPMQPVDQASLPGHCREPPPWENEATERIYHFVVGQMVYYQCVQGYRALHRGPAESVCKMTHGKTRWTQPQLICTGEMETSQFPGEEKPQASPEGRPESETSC

T2: trimeric IL-2 receptor (CD25/CD122/CD132) on HEK-Blue IL-2 reporter cells (UniProt P01589 22-272; P14784 27-551; P31785 23-369, limits assumed)
T2 sequence (looked up) 1: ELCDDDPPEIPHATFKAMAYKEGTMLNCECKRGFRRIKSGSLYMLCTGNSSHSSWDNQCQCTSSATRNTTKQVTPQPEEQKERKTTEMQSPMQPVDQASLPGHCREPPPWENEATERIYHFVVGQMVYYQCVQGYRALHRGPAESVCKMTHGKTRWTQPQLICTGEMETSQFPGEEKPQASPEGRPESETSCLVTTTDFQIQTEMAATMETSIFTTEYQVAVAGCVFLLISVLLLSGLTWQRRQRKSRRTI
T2 sequence (looked up) 2: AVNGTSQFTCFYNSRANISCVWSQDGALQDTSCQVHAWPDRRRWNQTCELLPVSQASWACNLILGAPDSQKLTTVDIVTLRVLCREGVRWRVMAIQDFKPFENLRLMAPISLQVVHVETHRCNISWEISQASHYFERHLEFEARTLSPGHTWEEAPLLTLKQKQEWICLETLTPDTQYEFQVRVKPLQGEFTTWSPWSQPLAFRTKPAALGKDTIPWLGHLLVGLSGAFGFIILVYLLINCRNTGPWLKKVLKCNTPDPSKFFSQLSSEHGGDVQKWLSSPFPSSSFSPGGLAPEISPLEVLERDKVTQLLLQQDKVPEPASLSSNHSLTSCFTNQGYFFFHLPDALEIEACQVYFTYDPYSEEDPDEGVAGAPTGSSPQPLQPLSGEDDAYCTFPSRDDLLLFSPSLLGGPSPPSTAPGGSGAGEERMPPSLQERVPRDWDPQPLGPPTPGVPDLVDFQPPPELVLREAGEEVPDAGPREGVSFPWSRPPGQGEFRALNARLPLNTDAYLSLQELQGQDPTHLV
T2 sequence (looked up) 3: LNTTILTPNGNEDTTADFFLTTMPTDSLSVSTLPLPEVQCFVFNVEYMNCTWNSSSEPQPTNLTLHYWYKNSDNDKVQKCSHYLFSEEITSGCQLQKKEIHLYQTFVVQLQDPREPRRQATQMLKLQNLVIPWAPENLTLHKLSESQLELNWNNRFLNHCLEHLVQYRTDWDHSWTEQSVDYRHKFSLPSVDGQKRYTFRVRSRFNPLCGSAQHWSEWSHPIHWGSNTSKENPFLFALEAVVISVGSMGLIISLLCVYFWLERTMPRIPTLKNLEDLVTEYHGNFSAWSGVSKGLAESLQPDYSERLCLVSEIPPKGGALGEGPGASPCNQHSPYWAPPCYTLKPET

T3: high affinity trimeric IL-2R on CD4+CD25+FoxP3+ Treg cells of murine splenocytes (mouse, UniProt P01590 22-268; P16297 27-539; P34902 23-369)
T3 sequence (looked up) 1: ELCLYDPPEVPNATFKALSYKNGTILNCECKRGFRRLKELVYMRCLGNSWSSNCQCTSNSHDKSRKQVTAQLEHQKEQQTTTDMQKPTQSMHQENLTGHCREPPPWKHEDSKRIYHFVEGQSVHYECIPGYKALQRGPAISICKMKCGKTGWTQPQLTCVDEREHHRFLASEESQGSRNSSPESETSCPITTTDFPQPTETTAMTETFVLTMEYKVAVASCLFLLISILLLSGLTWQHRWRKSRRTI
T3 sequence (looked up) 2: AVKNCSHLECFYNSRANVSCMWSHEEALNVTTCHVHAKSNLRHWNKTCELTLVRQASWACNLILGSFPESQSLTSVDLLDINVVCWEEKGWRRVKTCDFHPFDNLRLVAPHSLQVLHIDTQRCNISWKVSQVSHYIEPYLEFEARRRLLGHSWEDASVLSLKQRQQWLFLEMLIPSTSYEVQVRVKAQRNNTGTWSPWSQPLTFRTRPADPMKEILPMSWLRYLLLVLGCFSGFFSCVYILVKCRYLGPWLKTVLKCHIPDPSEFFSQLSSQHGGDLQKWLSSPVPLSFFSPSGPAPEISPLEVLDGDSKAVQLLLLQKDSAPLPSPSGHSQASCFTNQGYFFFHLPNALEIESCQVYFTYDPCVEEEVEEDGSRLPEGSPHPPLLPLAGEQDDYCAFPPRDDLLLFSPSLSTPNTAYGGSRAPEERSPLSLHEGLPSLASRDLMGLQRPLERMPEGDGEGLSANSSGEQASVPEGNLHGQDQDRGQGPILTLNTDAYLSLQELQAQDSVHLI
T3 sequence (looked up) 3: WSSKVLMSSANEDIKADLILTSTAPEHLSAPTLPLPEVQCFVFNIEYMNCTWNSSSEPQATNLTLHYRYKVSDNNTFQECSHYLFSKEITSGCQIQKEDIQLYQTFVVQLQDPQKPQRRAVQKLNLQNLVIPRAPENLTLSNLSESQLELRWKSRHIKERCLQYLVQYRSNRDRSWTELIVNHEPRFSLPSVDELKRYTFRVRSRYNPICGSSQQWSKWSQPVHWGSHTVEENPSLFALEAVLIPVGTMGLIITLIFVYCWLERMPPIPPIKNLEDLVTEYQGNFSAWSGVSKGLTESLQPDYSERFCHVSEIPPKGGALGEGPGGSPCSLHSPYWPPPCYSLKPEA

B1: EAD406 (other)
heavy: EVQLVQSGAEVKKPGESLKISCKGSGYAFTNYLIEWVRQMPGKGLEWMGVINPGSGGTNYNEKFKGQVTISADKSISTAYLQWSSLKASDTAMYYCARWRGEGYYAYFDVWGQGTTVTVSSASTKGPSVFPLAPSSKSTSGGTAALGCLVKDYFPEPVTVSWNSGALTSGVHTFPAVLQSSGLYSLSSVVTVPSSSLGTQTYICNVNHKPSNTKVDKRV[not shown - human IgG1 Fc with changes]
light: AIRLTQSPSSFSASTGDRVTITCKASQSVDYNFHLRPRDLISNINVIVLELKGSETTFMCEYADETATIVEFLNRWITFSQSIISTLTPTSSSTKKTQLQLEHLLLDLQMILNGINNYKNPKLTRMLTFKFYMPKKATELKHLQCLEEELKPLEEVLNLAQSKGDSYMNWYQQKPGKAPKLLIYAASNLESGVPSRFSGSGSGTDFTLTISSLQSEDFATYYCQQSNEDPYTFGGGTKVEIKRTVAAPSVFIFPPSDEQLKSGTASVVCLLNNFYPREAKVQWKVDNALQSGNSQESVTEQDSKDSTYSLSSTLTLSKADYEKHKVYACEVTHQGLSSPVTKSFNRGEC
notes: also called EAD409
B2: PGO345 (other)
heavy: EVQLVQSGAEVKKPGESLKISCKGSGYAFTNYLIEWVRQMPGKGLEWMGVINPGSGGTNYNEKFKGQVTISADKSISTAYLQWSSLKASDTAMYYCARWRGEGYYAYFDVWGQGTTVTVSSASTKGPSVFPLAPSSKSTSGGTAALGCLVKDYFPEPVTVSWNSGALTSGVHTFPAVLQSSGLYSLSSVVTVPSSSLGTQTYICNVNHKPSNTKVDKRV[not shown - human IgG1 Fc with changes]
light: AIRLTQSPSSFSASTGDRVTITCKASQSVDYGGGGSGNFHLRPRDLISNINVIVLELKGSETTFMCEYADETATIVEFLNRWITFSQSIISTLTPTSSSTKKTQLQLEHLLLDLQMILNGINNYKNPKLTRMLTFKFYMPKKATELKHLQCLEEELKPLEEVLNLAQSKGGGGSGGDSYMNWYQQKPGKAPKLLIYAASNLESGVPSRFSGSGSGTDFTLTISSLQSEDFATYYCQQSNEDPYTFGGGTKVEIKRTVAAPSVFIFPPSDEQLKSGTASVVCLLNNFYPREAKVQWKVDNALQSGNSQESVTEQDSKDSTYSLSSTLTLSKADYEKHKVYACEVTHQGLSSPVTKSFNRGEC
notes: Antibody A IgG with IL-2CP in CDR-L1; also called PGQ345; PG035
B3: FJC828 (other)
heavy: EVQLVQSGAEVKKPGESLKISCKGSGYAFTNYLIEWVRQMPGKGLEWMGVINPGSGGTNYNEKFKGQVTISADKSISTAYLQWSSLKASDTAMYYCARWRGEGYYAYFDVWGQGTTVTVSSASTKGPSVFPLAPSSKSTSGGTAALGCLVKDYFPEPVTVSWNSGALTSGVHTFPAVLQSSGLYSLSSVVTVPSSSLGTQTYICNVNHKPSNTKVDKRV[not shown - human IgG1 Fc with changes]
light: AIRLTQSPSSFSASTGDRVTITCKASQSVDYGGGGNFHLRPRDLISNINVIVLELKGSETTFMCEYADETATIVEFLNRWITFSQSIISTLTPTSSSTKKTQLQLEHLLLDLQMILNGINNYKNPKLTRMLTFKFYMPKKATELKHLQCLEEELKPLEEVLNLAQSKGGGGSDSYMNWYQQKPGKAPKLLIYAASNLESGVPSRFSGSGSGTDFTLTISSLQSEDFATYYCQQSNEDPYTFGGGTKVEIKRTVAAPSVFIFPPSDEQLKSGTASVVCLLNNFYPREAKVQWKVDNALQSGNSQESVTEQDSKDSTYSLSSTLTLSKADYEKHKVYACEVTHQGLSSPVTKSFNRGEC
notes: Antibody A IgG with IL-2CP in CDR-L1
B4: XFO227 (other)
heavy: EVQLVQSGAEVKKPGESLKISCKGSGYAFTNYLIEWVRQMPGKGLEWMGVINPGSGGTNYNEKFKGQVTISADKSISTAYLQWSSLKASDTAMYYCARWRGEGYYAYFDVWGQGTTVTVSSASTKGPSVFPLAPSSKSTSGGTAALGCLVKDYFPEPVTVSWNSGALTSGVHTFPAVLQSSGLYSLSSVVTVPSSSLGTQTYICNVNHKPSNTKVDKRV[not shown - human IgG1 Fc with changes]
light: AIRLTQSPSSFSASTGDRVTITCKASQSVDYGGNFHLRPRDLISNINVIVLELKGSETTFMCEYADETATIVEFLNRWITFSQSIISTLTPTSSSTKKTQLQLEHLLLDLQMILNGINNYKNPKLTRMLTFKFYMPKKATELKHLQCLEEELKPLEEVLNLAQSKGGGDSYMNWYQQKPGKAPKLLIYAASNLESGVPSRFSGSGSGTDFTLTISSLQSEDFATYYCQQSNEDPYTFGGGTKVEIKRTVAAPSVFIFPPSDEQLKSGTASVVCLLNNFYPREAKVQWKVDNALQSGNSQESVTEQDSKDSTYSLSSTLTLSKADYEKHKVYACEVTHQGLSSPVTKSFNRGEC
notes: Antibody A IgG with IL-2CP in CDR-L1; also called XFQ227

Assays:
[1] = biological target: T1, His-tagged recombinant CD25; assay: SPR, CD25 captured
[2] = biological target: T2, trimeric IL-2 receptor …; assay: cell-based or functional assay
[3] = biological target: IL-2R on NK cells and CD8+ T cells of murine splenocytes (C57BL/6) (mouse); assay: cell-based or functional assay
[4] = biological target: T3, high affinity trimeric IL-2R on …; assay: cell-based or functional assay
[5] = biological target: anti-IL-2 antibody clone 5344; assay: ELISA on clone 5344

| binding result [1] | EC50, HEK Blue IL-2 reporter assay (SEAP) [2] | EC50 CD8 cells (nM), pSTAT5 [3] | EC50 NK cells (nM), pSTAT5 [3] | EC50 Treg cells (nM), pSTAT5 [4] | EC50 [5] | Binder |
| --- | --- | --- | --- | --- | --- | --- |
| no binding (tested: 500 nM) | 0.00359 nM | 15.7 nM | 5.2 nM | 22 nM | 0.11 nM | B1 |
| no binding (tested: 500 nM) | 0.0032 nM | 6.6 nM | 2.3 nM | 7.6 nM | 0.16 nM | B2 |
| no binding (tested: 500 nM) | 0.00316 nM | 5.8 nM | 1.9 nM | 8.4 nM | 0.28 nM | B3 |
| no binding (tested: 500 nM) | 0.00303 nM | 8 nM | 2.7 nM | 10.6 nM | 0.14 nM | B4 |
